Measurements taken from ChEMBL document CHEMBL4888484, “Replenishing the malaria drug discovery pipeline: Screening and hit evaluation of the MMV Hit Generation Library 1 (HGL1) against asexual blood stage Plasmodium falciparum ,using a nano luciferase reporter read-out” (2022).
Among all 150,000 compounds or so, about 540 (0.36%) showed an effect of 50% or more. The list shows a part of the results.

Each molecule was assayed on Plasmodium falciparum (assay: Primary screen in NF54 nanoGlo assay, in single point, at 2uM, 72h; a lower Z score goes with more inhibition). Conditions: timepoint 72 hour.
Assay type: functional, Erythrocyte
With Cc1cccc(NC(=O)N2CCN(c3nc(C)cc(N4CCN(C)CC4)n3)CC2)c1 the “% Inhibition” value was -6% and the Z score was 1.17. CCC(=O)Nc1nc(C)c(C(C)(C)C)s1 was tested, and the “% Inhibition” value was -20% and the Z score was 2.33. In the case of CN(C(=O)N[C@H]1CCS(=O)(=O)C1)C1CCCCCC1, the “% Inhibition” value is reported as -4% and the Z score is reported as 0.4. With Cc1sc(-c2nnc(C3CC3)o2)cc1NS(C)(=O)=O the “% Inhibition” value was -11% and the Z score was 1.07. For COCCCN(Cc1cc2cc3c(cc2nc1-c1ccccc1C)OCO3)C(=O)c1cncs1, the “% Inhibition” value was 14% and the Z score was -1.79. For CC1CCN(S(=O)(=O)N2CCC(=O)C[C@@H]2C)CC1, the “% Inhibition” value was -9% and the Z score was 1.13. With CC[C@H](NC(=O)N1CCC2(CCOCC2)C1)c1cccc(Cl)c1 the “% Inhibition” value was -16% and the Z score was 2.49. In the case of COc1cccc(-c2nsc(C(=O)NCc3cccs3)c2N)c1, the “% Inhibition” value is reported as 18% and the Z score is reported as -2.8. CCC(C)(C)C(=O)Nc1cc(C)ccc1C was tested, and the “% Inhibition” value was -10% and the Z score was 1.29. For Cc1nn(-c2cccc3cccnc23)c(=O)c2ccccc12, the “% Inhibition” value was -16% and the Z score was 2.01. With CN(CC(=O)NCc1ccccn1)c1nnc(N2CCCCC2=O)s1 the “% Inhibition” value was -13% and the Z score was 2.35. In the case of CC(C)Cn1c(-c2cn[nH]c2)nnc1N1CC[C@H](N2CCN(C(C)C)CC2)C1, the “% Inhibition” value is reported as -1% and the Z score is reported as 0.13. In the case of Nc1[nH]nc(C2CC2)c1-c1ccc2c(c1)OCO2, the “% Inhibition” value is reported as 12% and the Z score is reported as -1.55. For Cc1ccnc(N2CC(CF)C2)c1C#N, the “% Inhibition” value was -15% and the Z score was 1.82. In the case of CN(Cc1ccncn1)C(=O)c1csc2nc(-c3ccccc3)cn12, the “% Inhibition” value is reported as -6% and the Z score is reported as 0.86. O=C(NC[C@H]1CCCN(Cc2ccoc2)C1)c1cncnc1 was tested, and the “% Inhibition” value was -10% and the Z score was 1.01. In the case of O=C(Cn1nnc2ccccc21)NC(C1CC1)C1CC1, the “% Inhibition” value is reported as 0% and the Z score is reported as 0.07. C[C@@H](c1ccccc1)N1CCN(C(=O)Cn2cnc(C#N)n2)CC1 was tested, and the “% Inhibition” value was -13% and the Z score was 1.13. With O=C(O)c1cc2ccccc2c([C@H]2Nc3ccccc3C(=O)N2O)c1O the “% Inhibition” value was -27% and the Z score was 3.11. In the case of CCN1C(=O)C2(CCN(C(=O)Cc3ccccc3C)CC2)C[C@H]1C(=O)NC1CCCC1, the “% Inhibition” value is reported as -16% and the Z score is reported as 2. With CCCc1ncncc1C(=O)N(C)C[C@H](O)CO the “% Inhibition” value was 1% and the Z score was -0.2. In the case of C[C@@H](Cc1cn(Cc2n[nH]c3c2CCC3)nn1)c1ccccc1, the “% Inhibition” value is reported as -12% and the Z score is reported as 2.18. CCOc1ncccc1CN1C[C@@H](C(=O)O)CC1=O was tested, and the “% Inhibition” value was 3% and the Z score was -0.4. In the case of N#Cc1cccc(N2CCC[C@@]3(CCC(=O)N(CCc4c[nH]cn4)C3)C2)n1, the “% Inhibition” value is reported as 2% and the Z score is reported as -0.39. For COc1ccccc1-c1nc(S(=O)(=O)c2ccc3c(c2)OCCO3)c(N2CCOCC2)o1, the “% Inhibition” value was -10% and the Z score was 1.29. In the case of O=C(N[C@@H](CO)C(=O)N1Cc2ccccc2C1)c1ccccc1, the “% Inhibition” value is reported as 1% and the Z score is reported as -0.16. CC(=O)Nc1ccc(S(=O)(=O)NC2=NCN(C)CN2)cc1 was tested, and the “% Inhibition” value was -6% and the Z score was 0.91. For CC(O)CC1COCCN1C(=O)NC1CC=CC1 (centres undefined), the “% Inhibition” value was -10% and the Z score was 1.45. For O=c1[nH]cncc1-c1nc(-c2ccc(Cl)cc2)no1, the “% Inhibition” value was 30% and the Z score was -3.41. In the case of CCc1nnc2n1CCN(C(=O)c1c(C)oc(C)c1C)C2, the “% Inhibition” value is reported as 2% and the Z score is reported as -0.37. For O=C(OCCNc1nc(-c2ccccc2)nc2ccccc12)c1cccnc1, the “% Inhibition” value was -5% and the Z score was 0.59. In the case of Cc1cc(NC(=O)Cn2ncc3cc(-c4ccccc4N(C)C)ccc32)n(C)n1, the “% Inhibition” value is reported as 9% and the Z score is reported as -1.73. For Cc1cccc(Cl)c1OCCOCCNC(C)(C)C, the “% Inhibition” value was 0% and the Z score was 0.01. With [O-][N+]1=CC(c2ccc3c(c2)OCO3)=[N+]([O-])C2CCCCC21 (centres undefined) the “% Inhibition” value was -11% and the Z score was 1.5. O=C(NCc1ccccn1)[C@@H]1CN(C(=O)Nc2ccc3c(c2)OCO3)CCO1 was tested, and the “% Inhibition” value was -2% and the Z score was 0.23. Cc1nn(C)c(N2CCN(c3ncc(Cl)cn3)CC2)c1N was tested, and the “% Inhibition” value was -8% and the Z score was 1.01. CN(CCc1nccs1)C(=O)[C@@H]1CCCN1CC(F)(F)F was tested, and the “% Inhibition” value was -2% and the Z score was 0.34. In the case of Cc1ccc(-c2c3c(=O)n(C)c(=O)n(C)c3c3n2-c2cc(C)ccc2O[C@@H]3c2ccccc2Cl)cc1, the “% Inhibition” value is reported as -6% and the Z score is reported as 0.87. With CN(C(=O)c1scnc1C1CC1)C1CCN(S(C)(=O)=O)CC1 the “% Inhibition” value was 2% and the Z score was -0.34. CC(C)=CCN1C(=O)[C@@H]2CC[C@H]1CN(C(=O)CCc1csc(N)n1)C2 was tested, and the “% Inhibition” value was -5% and the Z score was 0.67. For O[C@H]1Cc2ccccc2[C@H]1NCc1ncc[nH]1, the “% Inhibition” value was -25% and the Z score was 3.37. For CC(=O)[C@H]1CCN(C(=O)c2ccoc2)C1, the “% Inhibition” value was -13% and the Z score was 2.4.
